Measured values as given in patent publication US20190359693A1.

Experiments:
Experiment in all cases: cell-based or functional assay
[1] = target: hemagglutinin (HA) of influenza A/Brisbane/10/07 (H3N2) (influenza A virus A/Brisbane/10/07 (H3N2))
[2] = target: hemagglutinin (HA) of influenza A/New Caledonia/20/99 (H1N1) (influenza A virus A/New Caledonia/20/99 (H1N1))
[3] = target: hemagglutinin (HA) of influenza A/Vietnam/1194/04 (H5N1) (influenza A virus A/Vietnam/1194/04 (H5N1))
[4] = target: hemagglutinin (HA) of influenza B/Brisbane/60/08 (Victoria lineage) (influenza B virus B/Brisbane/60/08)
[5] = target: hemagglutinin (HA) of influenza B/Harbin/7/94 (Yamagata lineage) (influenza B virus B/Harbin/7/94)

B1: FM1B68.1 (Fc fusion)
chain 1: EVQLVESGGGLVQPGGSLRLSCAASGFTFSTSWMYWLRQAPGKGLEWVSVINTDGGTYYADSVKGRFTISRDNSKNTLYLQMNSLRAEDTAVYYCAKDWGGPEPTRGQGTLVTVSSGGGGSGGGGSEVQLLESGGGLVQPGGSLRLSCAASGFTLENKAIGWFRQAPGKEREGVLCISKSGSWTYYADSVKGRFTISRDNSKNTVYLQMNSLRPEDTAVYYCATTTAGGGLCWDGTTFSRLASSWGQGTLVTVSS[gap - human IgG1 Fc with changes]
chain 2: QVQLVESGGGVVQPGGSLRLSCAASISIFDIYAMDWYRQAPGKQRELVAVSFRDGSTYYADSVKGRFTISRDNSKNTLYLQMNSLRAEDTAVYYCHVSLYRDPLGVAGGIGVYWGQGTLVTVSSGGGGSGGGGSEVQLLESGGGLVQPGGSLRLSCAASGRTYAMGWFRQAPGKEREFVAAINALGTRTYYADSVKGRFTISRDNSKNTLYLQMNSLRAEDTAVYYCTAQGQWRAAPVAVAAEYEFWGQGTLVTVSS[gap - human IgG1 Fc with K409R (EU numbers)]
Average neutralization titers [1]: 16 nM | Average neutralization titers [2]: 6 nM | Average neutralization titers [3]: 16 nM | Average neutralization titers [4]: 6 nM | Average neutralization titers [5]: 6 nM

B2: FM1B69.1 (Fc fusion)
chain 1: EVQLLESGGGLVQPGGSLRLSCAASGFTLENKAIGWFRQAPGKEREGVLCISKSGSWTYYADSVKGRFTISRDNSKNTVYLQMNSLRPEDTAVYYCATTTAGGGLCWDGTTFSRLASSWGQGTLVTVSSGGGGSGGGGSEVQLVESGGGLVQPGGSLRLSCAASGFTFSTSWMYWLRQAPGKGLEWVSVINTDGGTYYADSVKGRFTISRDNSKNTLYLQMNSLRAEDTAVYYCAKDWGGPEPTRGQGTLVTVSS[gap - human IgG1 Fc with changes]
chain 2: EVQLVESGGGLVQPGGSLRLSCAISGLSLDTYAVGWFRQAPGKEREGVSCISSGHGMTYYADSVKGRFTISTDNSKNTVYLQMNSLRAEDTAVYYCATESRYYCSDNWPAPQRYIYWGQGTLVTVSSGGGGSGGGGSEVQLVESGGGLVQPGGSLRLSCAASGFTFSTSWMYWLRQAPGKGLEWVSVINTDGGTYYADSVKGRFTISRDNSKNTLYLQMNSLRAEDTAVYYCAKDWGGPEPTRGQGTLVTVSS[gap - human IgG1 Fc with changes]
Average neutralization titers [1]: 26 nM | Average neutralization titers [2]: 6 nM | Average neutralization titers [3]: 16 nM | Average neutralization titers [4]: 3 nM | Average neutralization titers [5]: 6 nM

B3: FM1B70.1 (Fc fusion)
chain 1: QVQLVESGGGVVQPGGSLRLSCAASISIFDIYAMDWYRQAPGKQRELVAVSFRDGSTYYADSVKGRFTISRDNSKNTLYLQMNSLRAEDTAVYYCHVSLYRDPLGVAGGIGVYWGQGTLVTVSSGGGGSGGGGSEVQLVESGGGLVQPGGSLRLSCAASGRTLSIYSMGWFRQAPGKEREFVATIGWNSGRTFYPDSVKGRFTISRDNSKNTLYLQMNSLRAEDTAVYYCAAAKGPLRLSSQADYWGQGTLVTVSS[gap - human IgG1 Fc with K409R (EU numbers)]
chain 2: EVQLVESGGGLVQPGGSLRLSCAASGFTFSTSWMYWLRQAPGKGLEWVSVINTDGGTYYADSVKGRFTISRDNSKNTLYLQMNSLRAEDTAVYYCAKDWGGPEPTRGQGTLVTVSSGGGGSGGGGSEVQLLESGGGLVQPGGSLRLSCAASGFTLENKAIGWFRQAPGKEREGVLCISKSGSWTYYADSVKGRFTISRDNSKNTVYLQMNSLRPEDTAVYYCATTTAGGGLCWDGTTFSRLASSWGQGTLVTVSS[gap - human IgG1 Fc with changes]
Average neutralization titers [1]: 16 nM | Average neutralization titers [2]: 6 nM | Average neutralization titers [3]: 16 nM | Average neutralization titers [4]: 6 nM | Average neutralization titers [5]: 5 nM

B4: FM1B71.1 (Fc fusion)
chain 1: QVQLVESGGGVVQPGGSLRLSCAASISIFDIYAMDWYRQAPGKQRELVAVSFRDGSTYYADSVKGRFTISRDNSKNTLYLQMNSLRAEDTAVYYCHVSLYRDPLGVAGGIGVYWGQGTLVTVSSGGGGSGGGGSEVQLVESGGGLVQPGGSLRLSCAASGRTLSIYSMGWFRQAPGKEREFVATIGWNSGRTFYPDSVKGRFTISRDNSKNTLYLQMNSLRAEDTAVYYCAAAKGPLRLSSQADYWGQGTLVTVSS[gap - human IgG1 Fc with K409R (EU numbers)]
chain 2: EVQLLESGGGLVQPGGSLRLSCAASGFTLENKAIGWFRQAPGKEREGVLCISKSGSWTYYADSVKGRFTISRDNSKNTVYLQMNSLRPEDTAVYYCATTTAGGGLCWDGTTFSRLASSWGQGTLVTVSSGGGGSGGGGSEVQLVESGGGLVQPGGSLRLSCAASGFTFSTSWMYWLRQAPGKGLEWVSVINTDGGTYYADSVKGRFTISRDNSKNTLYLQMNSLRAEDTAVYYCAKDWGGPEPTRGQGTLVTVSS[gap - human IgG1 Fc with changes]
Average neutralization titers [1]: 32 nM | Average neutralization titers [2]: 16 nM | Average neutralization titers [3]: 26 nM | Average neutralization titers [4]: 6 nM | Average neutralization titers [5]: 6 nM

B5: FM1B72.1 (Fc fusion)
chain 1: QVQLVESGGGVVQPGGSLRLSCAASISIFDIYAMDWYRQAPGKQRELVAVSFRDGSTYYADSVKGRFTISRDNSKNTLYLQMNSLRAEDTAVYYCHVSLYRDPLGVAGGIGVYWGQGTLVTVSSGGGGSGGGGSEVQLVESGGGLVQPGGSLRLSCAASGRTLSIYSMGWFRQAPGKEREFVATIGWNSGRTFYPDSVKGRFTISRDNSKNTLYLQMNSLRAEDTAVYYCAAAKGPLRLSSQADYWGQGTLVTVSS[gap - human IgG1 Fc with K409R (EU numbers)]
chain 2: EVQLVESGGGLVQPGGSLRLSCAISGLSLDTYAVGWFRQAPGKEREGVSCISSGHGMTYYADSVKGRFTISTDNSKNTVYLQMNSLRAEDTAVYYCATESRYYCSDNWPAPQRYIYWGQGTLVTVSSGGGGSGGGGSEVQLVESGGGLVQPGGSLRLSCAASGFTFSTSWMYWLRQAPGKGLEWVSVINTDGGTYYADSVKGRFTISRDNSKNTLYLQMNSLRAEDTAVYYCAKDWGGPEPTRGQGTLVTVSS[gap - human IgG1 Fc with changes]
Average neutralization titers [1]: 16 nM | Average neutralization titers [2]: 10 nM | Average neutralization titers [3]: 16 nM | Average neutralization titers [4]: 3 nM | Average neutralization titers [5]: 6 nM

B6: FM1B73.1 (Fc fusion)
chain 1: EVQLLESGGGLVQPGGSLRLSCAASGRTYAMGWFRQAPGKEREFVAAINALGTRTYYADSVKGRFTISRDNSKNTLYLQMNSLRAEDTAVYYCTAQGQWRAAPVAVAAEYEFWGQGTLVTVSSGGGGSGGGGSQVQLVESGGGVVQPGGSLRLSCAASISIFDIYAMDWYRQAPGKQRELVAVSFRDGSTYYADSVKGRFTISRDNSKNTLYLQMNSLRAEDTAVYYCHVSLYRDPLGVAGGIGVYWGQGTLVTVSS[gap - human IgG1 Fc with K409R (EU numbers)]
chain 2: EVQLVESGGGLVQPGGSLRLSCAASGFTFSTSWMYWLRQAPGKGLEWVSVINTDGGTYYADSVKGRFTISRDNSKNTLYLQMNSLRAEDTAVYYCAKDWGGPEPTRGQGTLVTVSSGGGGSGGGGSEVQLLESGGGLVQPGGSLRLSCAASGFTLENKAIGWFRQAPGKEREGVLCISKSGSWTYYADSVKGRFTISRDNSKNTVYLQMNSLRPEDTAVYYCATTTAGGGLCWDGTTFSRLASSWGQGTLVTVSS[gap - human IgG1 Fc with changes]
Average neutralization titers [1]: 16 nM | Average neutralization titers [2]: 101 nM | Average neutralization titers [3]: 101 nM | Average neutralization titers [4]: 5 nM | Average neutralization titers [5]: 6 nM
